Our source for the inhibition values is PubChem BioAssay AID485344 (National Center for Advancing Translational Sciences (NCATS), 2010).

Structures are written as SMILES. Among all 340,000 compounds or so, about 6,900 (2%) were called active. No stated cut-off is given here; in the data, active means inhibition above about 30%; inactive means below that, where a call was filed. The entries are a selection whose mix differs from that of the whole data set. Entries without a call were filed so in the source.

This experiment concerns the target D(2) dopamine receptor (Homo sapiens) (UniProt P14416). In words: HTS Assay for Allosteric Antagonists of the Human D2 Dopamine Receptor: Primary Screen for Antagonists. Further: 0% is about no effect. The following applies: HEK293 TREx D2 cells, calcium flux, dopamine EC80; at 10 µM; stronger effect = higher value. In a few lines: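 Read-out: kinetic calcium fluorescence (1 cycle/s) in inducible HEK293 T-REx D2 cells after an EC80 dopamine addition that followed 180 s compound preincubation. Loss of the dopamine response indicates antagonism.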
UniProt P14416, sequence (P14416 whole entry, looked up): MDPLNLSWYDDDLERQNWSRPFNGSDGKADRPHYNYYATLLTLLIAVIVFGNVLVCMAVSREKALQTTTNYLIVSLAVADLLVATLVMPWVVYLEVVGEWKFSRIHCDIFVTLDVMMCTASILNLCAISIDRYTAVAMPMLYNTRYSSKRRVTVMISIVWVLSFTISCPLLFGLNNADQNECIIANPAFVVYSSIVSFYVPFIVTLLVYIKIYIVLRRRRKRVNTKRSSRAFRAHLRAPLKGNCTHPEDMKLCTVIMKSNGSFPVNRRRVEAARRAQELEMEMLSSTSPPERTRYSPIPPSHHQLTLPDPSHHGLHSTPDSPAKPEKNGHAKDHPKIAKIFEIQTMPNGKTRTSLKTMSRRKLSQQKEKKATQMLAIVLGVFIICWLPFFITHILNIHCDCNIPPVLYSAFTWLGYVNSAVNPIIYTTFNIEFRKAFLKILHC
(In general: Calcium assays in cells follow changes in intracellular calcium, usually with a dye or a luminescent sensor.)
By inhibition is commonly meant the change of the read-out against control, counted positive when it falls. Turning to `Cn1c(=O)c2c(nc(NCCc3ccccc3)n2Cc2ccc(Cl)c(Cl)c2)n(C)c1=O`, the inhibition amounted to 12.6%.

As for `CC(C)c1nn2c(=O)cc(COC(=O)c3ccccc3NC(=O)c3cccs3)nc2s1`, the inhibition is -12.2%.

Turning to `CC1CCCN(c2csc3ccccc3c2=O)C1` (centres undefined), the inhibition is -0.921%.

On to `CCCN(Cc1cccs1)C(=O)Nc1ccccc1C`, for which the inhibition came out at 3.19%.

Consider `Cc1oc2c(c1C(=O)Nc1ccc(Cl)cc1F)C1=NCCN1C=N2`, for which the inhibition was 9.78%.

On to `COc1ccc(Cl)cc1C(=O)NCC(c1ccc(N(C)C)cc1)N1CCOCC1` (centres undefined), for which the inhibition was 26.8%.

In the case of `Cc1cccc(C)c1OCC(=O)N(Cc1ccc(Cl)cc1)CC1CCCO1` (centres undefined), the inhibition was 10.9%.

Consider `Cc1cc(C)cc(NS(=O)(=O)c2cc(Br)cnc2N)c1`, for which the inhibition was active: 31.8%.

As for `Cc1nc2sccn2c(=O)c1S(=O)(=O)NCc1ccccc1`, the inhibition was found to be 22.6%.

Turning to `COc1ccc(Nc2nnc(-c3ccc(C)c(S(=O)(=O)N4CCN(C)CC4)c3)c3ccccc23)cc1`, the inhibition worked out at 2.62%.

`Cc1ccc(C)c(N2CCN(C(=O)c3ccc4c(c3)c(C)c(C)n4C)CC2)c1`: the inhibition stood at 2.29%.

`CCOc1ccccc1C1CC(=O)NC(C)=C1C(=O)OCc1ccc(C)cc1` (centres undefined): the inhibition was found to be 8.7%.

For `COc1cc2c(cc1OC)C(COc1ccc3c(C)cc(=O)oc3c1)N(C(=O)c1ccc(C)c(C)c1)CC2` (centres undefined), the inhibition was found to be 3.11%.

Take `COC(=O)c1ccc(OC)c(CN2CCCN(Cc3ccc(C)cc3)S2(=O)=O)c1`: the inhibition was -2.57%.

Consider `Cc1cc(C)cc(NC(=O)CCC(=O)Nc2nnc(C(C)C)s2)c1`, for which the inhibition was active: 33.2%.

Consider `COc1ccc(N2CCN(C(=O)Cc3noc4ccc(C)cc34)CC2)cc1`, for which the inhibition came out at 26.9%.

In the case of `COc1ccc(C(=O)N2CCC(c3ccncc3)CC2)cc1OC`, the inhibition is 28.3%.

For the compound `CCc1ccc(NC(=O)Cn2ccn(-c3cccc(Cl)c3)c(=O)c2=O)cc1`, the inhibition was -16.8%.

`COc1cc(C(=O)NNC(=O)C2CSC3(C)CCC(=O)N23)cc(OC)c1OC` (centres undefined): the inhibition is active: 40.6%.

`Cc1ccc(CN2CCc3nc(N4CCN(C)CC4)ncc3C2)cc1`: the inhibition is -21%.

With `COc1cccc(NC(=O)CCc2nc(-c3cc(OC)c(OC)c(OC)c3)no2)c1`, the inhibition is -13.3%.

As to `COc1ccc(CCNC(=O)c2cc(-c3ccc(Cl)cc3)on2)cc1OC`, the inhibition is -19.4%.

Take `CCOC(=O)c1ccc(NC(=O)c2cc3c(=O)n(C)c4ccccc4c3n2C)cc1`: the inhibition was -14.5%.

On to `Cn1c(=O)cc(SCC(=O)Nc2cccc(C#N)c2)c2ccc(Cl)cc21`, for which the inhibition is -2.8%.

As to `Cc1ccc(C)c(NC(=O)C(=O)NCCc2csc(-c3cccc(F)c3)n2)c1`, the inhibition amounted to 22.4%.

As for `O=C(N/N=C/c1ccccn1)C1CC1`, the inhibition was active: 31.9%.

With `CC1CCCN(CCOc2ccc3ccccc3c2Br)C1` (centres undefined), the inhibition is active: 71.5%.

`Cc1nc2ccccn2c(=O)c1NC(=O)c1ccccc1Cl`: the inhibition is -2.31%.

As for `COc1cc2c(C(=O)N3CCN(c4ccc(C)cc4)C(C)C3)cn(CC(C)C)c(=O)c2cc1OC` (centres undefined), the inhibition is -6.22%.

Turning to `COc1ccccc1CNC(=O)Cn1c(-c2cccs2)cc2cc(F)ccc21`, the inhibition is -1.41%.

Regarding `CCOc1ccccc1NC(=O)Cn1nc2c3cc(F)ccc3n(Cc3cccc(C)c3)cc-2c1=O`, the inhibition was found to be 2.99%.

`COc1ccc(Cl)cc1C(=O)NNC(=O)COC(=O)CCN=C1NS(=O)(=O)c2ccccc21`: the inhibition was active: 30.4%.

Turning to `Cc1c(C)n(C)c2ccc(C(=O)N3CCN(c4ccccn4)CC3)cc12`, the inhibition was active: 31.4%.

For `COc1ccc(/C=C/c2nc(C#N)c(NC3CCCCC3)o2)cc1OC`, the inhibition is 7.24%.

Turning to `O=C(CCS(=O)(=O)c1cc2c3c(c1)CCN3C(=O)CC2)NCc1ccc(Cl)cc1`, the inhibition came out at 1.94%.

Regarding `CCOC(=O)C1=C(CN2CCN(c3ccccc3F)CC2)NC(=O)NC1c1ccc(OC)cc1` (centres undefined), the inhibition is -14.2%.

With `COC(=O)CSc1ccc2nnc(CCNS(=O)(=O)c3ccc(C)cc3)n2n1`, the inhibition was -21.6%.

With `Cc1ccc(CNC(=O)CCc2c(C)nn(-c3ccc(N4CCCC4)nn3)c2C)cc1`, the inhibition was -6.41%.

With `CCc1cccc(C)c1Nc1c(-c2cccc(O)c2)nc2cnccn12`, the inhibition came out at 20.7%.

Consider `CC(C)CCNC(=O)c1cnc2sc(N3CCCCC3)nn2c1=O`, for which the inhibition was found to be 1.73%.

`COc1ccc(N(C(=O)c2cccc(C)c2)S(=O)(=O)c2ccc(Cl)cc2)cc1`: the inhibition is -2.27%.

As to `CCOc1cc(C(=O)N2CCn3c4c(c5cc(C)ccc53)CCCC42)cc(OCC)c1OCC` (centres undefined), the inhibition was determined as 5.05%.

On to `Cc1c(NC(=O)Nc2ccccc2C(F)(F)F)sc2nc3n(c(=O)c12)CCC(C)CC3` (centres undefined), for which the inhibition amounted to 3.38%.

With `CC(NC(=O)C1CCN(c2nc3ccccc3nc2C(F)(F)F)CC1)c1ccccc1` (centres undefined), the inhibition turned out to be 5.55%.

`O=C(N[C@H]1CC1c1ccccc1)c1ccc([N+](=O)[O-])cc1` (some centres undefined): the inhibition is active: 32.9%.

With `CCCCN(CC)CCCNC(=O)Nc1sc2nc3n(c(=O)c2c1C)CCC(C)CC3` (centres undefined), the inhibition worked out at 3.4%.

On to `CCCCNC(=O)c1cccc(-n2c(C)nc3cccnc32)c1`, for which the inhibition was determined as 9.3%.

On to `Cc1ccc2[nH]c3c(N4CCN(Cc5ccccc5)CC4)ncnc3c2c1`, for which the inhibition was active: 38.6%.

For `Cc1nc2ccc(S(=O)(=O)N(C)CC(=O)Nc3cccc(C(F)(F)F)c3)cc2s1`, the inhibition turned out to be 8.34%.

Take `CCOC(=O)c1cc(S(=O)(=O)N2CCN(c3ccccc3F)CC2)[nH]n1`: the inhibition is -1.86%.

As for `COc1ccc(N2CCN(CCCNC(=O)Cn3c(-c4cccs4)cc4ccccc43)CC2)cc1`, the inhibition is -7.15%.

With `CCCOc1ccccc1N/C(N)=N/c1nc(C)cc(C)n1`, the inhibition was active: 30.9%.

On to `CCOc1ccc(CNS(=O)(=O)c2ccc(-c3coc(C)n3)cc2)cc1`, for which the inhibition worked out at 6.16%.

As for `COc1cccc(C2C(C(=O)Nc3ccc(C)cc3C)=C(C)Nc3nc4ccccc4n32)c1OC` (centres undefined), the inhibition is -16.4%.

Turning to `COc1ccc2nc(N(Cc3cccnc3)C(=O)C3CCCCC3)sc2c1`, the inhibition is 20.5%.

Regarding `CC1(C)C(=O)N(CC(=O)Nc2ccc(Br)cc2F)c2ccccc21`, the inhibition is -18.8%.

Turning to `Cn1cc(S(=O)(=O)N2CCOCC2)cc1C(=O)Nc1ccc(Cl)c(C(F)(F)F)c1`, the inhibition is 10.2%.

Regarding `Cc1ccc(O)c(NC(=O)c2cc(-c3ccccc3O)no2)c1`, the inhibition was -27.1%.

For the compound `Cc1cc(NC(=O)Nc2nnc(N(C)Cc3ccccc3)s2)ccc1Br`, the inhibition came out at 0.547%.

With `CCOc1ccccc1NC(=O)Cc1noc2ccc(C)cc12`, the inhibition was 17.7%.

As for `CCOc1ccc2nc(NC(=O)c3nc(SC)ncc3Cl)sc2c1`, the inhibition is -7.1%.

As for `Cn1cnc2c(=O)oc3ccc(S(=O)(=O)Nc4ccc(F)cc4)cc3c21`, the inhibition stood at 9%.

As for `COc1cc2c(cc1OC)C1Cc3ccc(OC)c(OC)c3CN1CC2` (centres undefined), the inhibition was active: 79.7%.

Take `COc1ccc(-c2nnc(SCc3cccc(Cl)c3)o2)cc1`: the inhibition was 5.13%.
